Assay results: the supplement of paper PMC4723716
Values joined by “and” are separate entries in the source; they are usually repeats but may differ in a detail not shown here. Identical values can stand only once. ± gives the uncertainty stated by the source. Over roughly 9,900 compounds, “viability index relative to DMSO control” has its median near 1; the lowest 2% begin near 0.85. Some of the results follow.

The compounds below were run on Plasmodium falciparum NF54 stage V gametocytes (assay: viability index relative to DMSO control (fraction); higher = less gametocyte killing). Conditions: 2.5 µM, library set: Broad Institute DOS, incubation time: 72 h.
How it was run: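 Gametocytes (P. falciparum NF54, stage V) were treated with compound at 2.5 µM for 72 hr at 37°C in low oxygen, in serum-free medium at 0.75% gametocytemia and 1.25% hematocrit. Counts of 20–70 µm2 red particles, taken from one field per well after MitoTracker Red CMXRos with saponin, were divided by the plate mean of solvent-only wells. This ratio is the viability index.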

Q: With `CNC(=O)C[C@@H]1CC[C@@H]2[C@H](COC[C@@H](O)CN2Cc2ccccc2F)O1` as the compound, how does the viability index read?
A: 1.08 ± 0.086

Q: How did the viability index turn out when `CN(C)C(=O)C[C@H]1CC[C@H]2[C@@H](COC[C@@H](O)CN2S(=O)(=O)c2ccccc2Cl)O1` was run?
A: 1.08 ± 0.04

Q: With `COCC(=O)N1CC[C@@H]2[C@H](CO)Nc3ccc(-c4ccc(C(=O)N(C)C)cc4)cc3[C@@H]21` as the compound, how does the viability index read?
A: 1.14 ± 0.038

Q: For `COc1ccc(S(=O)(=O)N(C)C[C@H]2Oc3c(cccc3N(C)C)C(=O)N([C@@H](C)CO)C[C@H]2C)cc1`, which viability index is on record?
A: 0.959 ± 0.068

Q: Which viability index does the source give for `N#C[C@@H]1[C@@H](c2ccccc2-c2cccc(F)c2)[C@H](CO)N1C(=O)C1CC1` here?
A: 1.11 ± 0.071

Q: For `O=C(NCc1ccc(F)cc1)[C@H]1[C@H](CO)[C@H]2Cn3c(cccc3=O)[C@H]2N1C(=O)c1cccnc1`, which viability index is on record?
A: 1.067 ± 0.0055

Q: How did the viability index turn out when `CCN1CC(=O)N2[C@H](C1)[C@H](c1ccc(Br)cc1)[C@@H]2CO` was run?
A: 0.956 ± 0.1

Q: For `C[C@@H]1CN([C@@H](C)CO)C(=O)CCCn2nncc2CO[C@@H]1CN(C)S(=O)(=O)c1ccccc1C#N`, which viability index is on record?
A: 1.1 ± 0.047

Q: How did the viability index turn out when `O=C(O)[C@@H]1[C@@H](CO)[C@@H]2Cn3c(ccc(-c4ccccc4F)c3=O)[C@@H]2N1Cc1ccccc1` was run?
A: 1.05 ± 0.038

Q: `COc1ccc(CN(C)C[C@H]2Oc3ccc(NC(=O)Nc4ccc5c(c4)OCO5)cc3CC(=O)N([C@@H](C)CO)C[C@@H]2C)cc1` was tested. Which viability index did it give?
A: 0.981 ± 0.048

Q: For `C[C@H]1CN([C@@H](C)CO)C(=O)c2cc(NS(=O)(=O)c3cn(C)cn3)ccc2O[C@H]1CN(C)S(=O)(=O)c1ccc(F)cc1`, which viability index is on record?
A: 0.958 ± 0.1

Q: For `CCCC(=O)N1C[C@]2(CCN(CC2)S(C)(=O)=O)c2c([nH]c3cc(OC)ccc23)[C@H]1CO`, which viability index is on record?
A: 1.06 ± 0.013

Q: Which viability index does the source give for `Cc1noc(C)c1NC(=O)N(C)C[C@H]1Oc2ccc(NC(=O)CCCN(C)C)cc2C(=O)N([C@@H](C)CO)C[C@H]1C` here?
A: 1.05 ± 0.084

Q: With `C[C@H](CO)N1C[C@H](C)[C@H](CN(C)C(=O)Nc2ccc(C(F)(F)F)cc2)Oc2c(NC(=O)c3ccc(-c4nccs4)cc3)cccc2C1=O` as the compound, how does the viability index read?
A: 1.04 ± 0.021

Q: Which viability index does the source give for `C[C@@H]1CCCCO[C@@H](CN(C)CC2CCCCC2)[C@H](C)CN([C@H](C)CO)C(=O)c2cc(NS(C)(=O)=O)ccc2O1` here?
A: 1.076 ± 0.0096

Q: `CO[C@@H]1CN(C)C(=O)c2ccc(NS(=O)(=O)c3c(C)noc3C)cc2OC[C@@H](C)NC[C@@H]1C` was tested. Which viability index did it give?
A: 1.06 and 1.13

Q: For `Cn1cnc(S(=O)(=O)N2C[C@H](O)COC[C@H]3O[C@@H](CC(=O)NCc4cccc(F)c4)CC[C@@H]32)c1`, which viability index is on record?
A: 1.05 ± 0.068

Q: How did the viability index turn out when `Cc1noc(C)c1NC(=O)Nc1ccc2c(c1)C(=O)N(C)[C@@H]1CC[C@H](CC(=O)N[C@@H]3CCN(Cc4ccccc4)C3)O[C@H]1CO2` was run?
A: 1.16 ± 0.077

Q: With `CCCNC(=O)N1C[C@]2(CCN(CC2)C(=O)c2cccc(F)c2)c2c([nH]c3cc(OC)ccc23)[C@@H]1CO` as the compound, how does the viability index read?
A: 0.944 ± 0.015

Q: With `COc1ccc(-c2ccc3c(c2)[C@@H]2[C@@H](CCN2C(=O)c2ccncc2)[C@H](CO)N3C)cc1` as the compound, how does the viability index read?
A: 1.1 ± 0.043

Q: For `N#C[C@@H]1[C@@H](c2ccccc2)[C@H](CO)N1C(=O)c1cc(Cl)cc(Cl)c1`, which viability index is on record?
A: 1.06 ± 0.019

Q: `O=C(Nc1ccc(C(F)(F)F)cc1)N[C@H]1C=C[C@@H](CC(=O)N2CCCCC2)O[C@@H]1CO` was tested. Which viability index did it give?
A: 1.13 ± 0.07

Q: `CN1[C@@H]2Cn3c(ccc(/C=C/c4ccccc4)c3=O)[C@H]1[C@@H](C(=O)NC1Cc3ccccc3C1)[C@@H]2CO` was tested. Which viability index did it give?
A: 1.075 ± 0.0017

Q: `CO[C@@H]1CN(C)C(=O)c2cc(NC(=O)C3CCCCC3)ccc2OC[C@@H](C)N(C(=O)c2ccccc2)C[C@@H]1C` was tested. Which viability index did it give?
A: 0.981 ± 0.014

Q: For `CCCNC(=O)N1[C@H](CO)[C@H](c2ccc(-c3ccccc3F)cc2)[C@@H]1C#N`, which viability index is on record?
A: 1.05 ± 0.032

Q: `C[C@H](CO)N1C[C@H](C)[C@@H](CN(C)C(=O)NC2CCCCC2)OCc2cn(nn2)CCCC1=O` was tested. Which viability index did it give?
A: 0.998 ± 0.012

Q: How did the viability index turn out when `CCNC(=O)c1cc2c(c(-c3cccc(-c4ccccc4F)c3)n1)[C@@H](CCO)N(C(=O)CC1CC1)C2` was run?
A: 1.03 ± 0.1

Q: Which viability index does the source give for `N#C[C@H]1N[C@@H](CO)[C@H]1c1ccc(C#CC2CCCCC2)cc1` here?
A: 1.102 ± 0.0024

Q: `NCC[C@@H]1CC[C@@H](NS(=O)(=O)c2ccc(Cl)cc2)[C@H](CO)O1` was tested. Which viability index did it give?
A: 1.08 ± 0.1

Q: How did the viability index turn out when `C[C@@H]1CN([C@H](C)CO)C(=O)c2cc(NC(=O)Nc3ccccc3)ccc2O[C@@H]1CN(C)Cc1ccccc1` was run?
A: 1.03 ± 0.011

Q: With `Cc1ccccc1NC(=O)C[C@H]1CC[C@H]2[C@@H](COc3ccc(NC(=O)NC(C)C)cc3C(=O)N2C)O1` as the compound, how does the viability index read?
A: 1 ± 0.12

Q: For `C[C@@H]1CCCCO[C@@H](CN(C)S(=O)(=O)c2cn(C)cn2)[C@H](C)CN([C@H](C)CO)C(=O)c2cc(N(C)C)ccc2O1`, which viability index is on record?
A: 0.884 ± 0.12

Q: Which viability index does the source give for `O=C(c1cccc(F)c1)N1CC(=O)N2[C@H](CO)[C@H](c3ccc(C4=CCCCC4)cc3)[C@@H]2C1` here?
A: 0.995 ± 0.092

Q: With `C[C@@H]1CCCCO[C@@H](CN(C)C(=O)Nc2ccc(C(F)(F)F)cc2)[C@H](C)CN([C@@H](C)CO)C(=O)c2cc(NS(=O)(=O)c3cn(C)cn3)ccc2O1` as the compound, how does the viability index read?
A: 1.07 ± 0.14

Q: `COc1ccc(NC(=O)N(C)C[C@H]2OCCCC[C@@H](C)Oc3ccc(NC(=O)c4ccncc4)cc3C(=O)N([C@@H](C)CO)C[C@@H]2C)cc1` was tested. Which viability index did it give?
A: 1.103 ± 0.0097

Q: For `CO[C@@H]1CN(C)C(=O)c2ccc(NS(C)(=O)=O)cc2OC[C@H](C)N(CC2CC2)C[C@H]1C`, which viability index is on record?
A: 1.08 ± 0.046

Q: With `CN1C(=O)c2cc(NC(=O)Cc3cccs3)ccc2OC[C@H]2O[C@@H](CC(=O)NCC3CCCCC3)CC[C@@H]21` as the compound, how does the viability index read?
A: 1.13 ± 0.037

Q: How did the viability index turn out when `CO[C@@H]1CN(C)C(=O)c2ccc(NC(=O)Nc3ccccc3)cc2OC[C@@H](C)N(C(=O)CC2CC2)C[C@H]1C` was run?
A: 1.01 ± 0.084

Q: For `COCCNC[C@H]1[C@@H](c2ccccc2)[C@@H](CO)N1c1nc(C)c(C)s1`, which viability index is on record?
A: 0.994 ± 0.079

Q: With `CO[C@H]1CC[C@@H]2CCOc3c(C#N)cccc3C(=O)N(C)C[C@@H](c3ccccc3)CC(=O)N(C)C[C@H]1O2` as the compound, how does the viability index read?
A: 0.997 ± 0.09

Q: `CNC[C@@H]1Oc2ccc(NC(=O)NC3CCCCC3)cc2CC(=O)N([C@H](C)CO)C[C@H]1C` was tested. Which viability index did it give?
A: 0.978 ± 0.032

Q: `CN1C[C@@H](O)COC[C@@H]2O[C@@H](CC(=O)NC3CCCC3)CC[C@H]21` was tested. Which viability index did it give?
A: 1.1 ± 0.02

Q: With `COc1cccc(NC(=O)N[C@H]2C=C[C@H](CC(=O)NCc3ccncn3)O[C@H]2CO)c1` as the compound, how does the viability index read?
A: 1.128 ± 0.0057

Q: For `COc1ccc2c3c([nH]c2c1)[C@H](CO)NC[C@]31CCN(CC1)C(=O)Nc1ccccc1F`, which viability index is on record?
A: 1.001 ± 0.0047

Q: How did the viability index turn out when `CCC(=O)N1CC[C@@H]2[C@@H](CO)N(C)c3ccc(-c4ccc(C#N)cc4)cc3[C@@H]21` was run?
A: 1.15 ± 0.039
